# Only a part is listed here, and it is no random draw. The list includes weakly bound sequences.
# Columns and labels:
# Experiment in all cases: protein-binding microarray (PBM)
# Details in all cases: PBM: ~300 nM protein, 6 mM HEPES pH 7.8, 80 mM KCl, 0.5 mM EDTA, 0.5 mM EGTA, 6% glycerol, 35 ng/ul poly-dIdC, 1% milk, 1 h, room temperature; Ap Aiptasia and Nv Nematostella (sea anemones) / Co Capsaspora / Aq Amphimedon (sponge) / Dm Drosophila / Hu human; RHD is the Rel homology domain; high values mean tight binding; most listed sequences are background and not binding sites; double strand, one strand shown
# [1] = molecular target: T1, GST-Nv-NF-kB (Cys allele) (UniProt E5G601)
# T1 sequence: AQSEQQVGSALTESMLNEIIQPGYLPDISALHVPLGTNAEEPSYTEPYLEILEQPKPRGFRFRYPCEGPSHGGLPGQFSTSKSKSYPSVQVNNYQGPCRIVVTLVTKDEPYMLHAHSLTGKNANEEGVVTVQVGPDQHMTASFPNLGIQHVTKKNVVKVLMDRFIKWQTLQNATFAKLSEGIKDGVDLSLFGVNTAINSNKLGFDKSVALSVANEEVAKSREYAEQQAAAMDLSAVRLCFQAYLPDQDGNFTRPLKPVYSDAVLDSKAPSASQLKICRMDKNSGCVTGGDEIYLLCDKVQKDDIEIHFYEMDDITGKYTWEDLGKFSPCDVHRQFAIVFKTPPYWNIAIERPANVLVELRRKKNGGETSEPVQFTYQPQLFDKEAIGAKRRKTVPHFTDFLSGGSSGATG
# GST-Co-NF-kB = molecular target: T2, GST-Co-NF-kB (UniProt F1ARL5)
# T2 sequence: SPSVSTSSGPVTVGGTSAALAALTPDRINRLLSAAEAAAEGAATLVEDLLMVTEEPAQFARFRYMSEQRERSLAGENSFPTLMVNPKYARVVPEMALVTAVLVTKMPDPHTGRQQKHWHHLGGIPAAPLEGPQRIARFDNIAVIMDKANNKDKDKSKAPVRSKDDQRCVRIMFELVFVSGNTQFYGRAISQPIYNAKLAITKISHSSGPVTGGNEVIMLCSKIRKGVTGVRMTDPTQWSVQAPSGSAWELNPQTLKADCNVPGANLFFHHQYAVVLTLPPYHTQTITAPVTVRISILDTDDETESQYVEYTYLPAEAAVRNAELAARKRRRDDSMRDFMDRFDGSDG
# GST-Dm-Relish = molecular target: T3, GST-Dm-Relish (UniProt Q94527)
# T3 sequence: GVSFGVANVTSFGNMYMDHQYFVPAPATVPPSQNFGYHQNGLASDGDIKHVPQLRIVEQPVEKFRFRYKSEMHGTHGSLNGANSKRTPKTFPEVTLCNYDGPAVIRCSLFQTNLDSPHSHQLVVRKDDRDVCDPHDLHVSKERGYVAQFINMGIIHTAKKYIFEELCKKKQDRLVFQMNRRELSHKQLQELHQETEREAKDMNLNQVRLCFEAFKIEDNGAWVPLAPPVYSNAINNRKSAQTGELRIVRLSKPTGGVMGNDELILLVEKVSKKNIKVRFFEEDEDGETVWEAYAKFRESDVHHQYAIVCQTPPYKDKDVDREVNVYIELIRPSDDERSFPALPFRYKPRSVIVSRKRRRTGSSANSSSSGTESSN
# GST-Aq-NF-kB = molecular target: T4, GST-Aq-NF-kB (UniProt A9Y5G7)
# T4 sequence: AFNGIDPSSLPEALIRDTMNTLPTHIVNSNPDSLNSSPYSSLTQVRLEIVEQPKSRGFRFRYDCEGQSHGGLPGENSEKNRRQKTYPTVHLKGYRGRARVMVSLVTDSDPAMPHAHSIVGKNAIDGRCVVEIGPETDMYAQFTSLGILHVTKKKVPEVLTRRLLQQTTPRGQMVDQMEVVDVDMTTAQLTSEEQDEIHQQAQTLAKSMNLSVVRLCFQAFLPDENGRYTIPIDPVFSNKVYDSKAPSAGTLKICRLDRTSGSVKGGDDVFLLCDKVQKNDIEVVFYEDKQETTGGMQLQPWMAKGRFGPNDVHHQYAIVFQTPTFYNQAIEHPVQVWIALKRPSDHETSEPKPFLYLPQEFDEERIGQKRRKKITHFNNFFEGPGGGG
sequence,measurement,setting,value
CCGATTAACATCAGCTAGTCCCTTGATGTTAATCGGGTCTTGATTCGCTTGACGCTGCTG,binding signal,[1],3.63 z-score
same,binding signal,GST-Co-NF-kB,0.223 z-score
same,binding signal,GST-Dm-Relish,0.0367 z-score
same,binding signal,GST-Aq-NF-kB,3.06 z-score
CCGATTAACATCAGCTATTTCCCTGATGTTAATCGGGTCTTGATTCGCTTGACGCTGCTG,binding signal,[1],3.01 z-score
same,binding signal,GST-Dm-Relish,0.198 z-score
same,binding signal,GST-Aq-NF-kB,3.31 z-score
CCGATTAACATCACCCGGGAAACTGATGTTAATCGGGTCTTGATTCGCTTGACGCTGCTG,binding signal,[1],2.39 z-score
same,binding signal,GST-Dm-Relish,1.11 z-score
same,binding signal,GST-Aq-NF-kB,2.32 z-score
CCGATTAACATCATGTTTGCGGGTGATGTTAATCGGGTCTTGATTCGCTTGACGCTGCTG,binding signal,[1],-0.0901 z-score
same,binding signal,GST-Co-NF-kB,1.02 z-score
same,binding signal,GST-Dm-Relish,0.472 z-score
same,binding signal,GST-Aq-NF-kB,0.335 z-score
CCGATTAACATCAAGTCCCCCCATGATGTTAATCGGGTCTTGATTCGCTTGACGCTGCTG,binding signal,[1],4.07 z-score
same,binding signal,GST-Dm-Relish,4.21 z-score
same,binding signal,GST-Aq-NF-kB,4.39 z-score
CCGATTAACATCACGGGATCCCCTGATGTTAATCGGGTCTTGATTCGCTTGACGCTGCTG,binding signal,[1],4.81 z-score
same,binding signal,GST-Dm-Relish,9.23 z-score
same,binding signal,GST-Aq-NF-kB,5.41 z-score
CCGATTAACATCAGGGAAAACTATGATGTTAATCGGGTCTTGATTCGCTTGACGCTGCTG,binding signal,[1],5.55 z-score
same,binding signal,GST-Dm-Relish,1.67 z-score
same,binding signal,GST-Aq-NF-kB,4.07 z-score
CCGATTAACATCACCCGCGCTCATGATGTTAATCGGGTCTTGATTCGCTTGACGCTGCTG,binding signal,[1],0.692 z-score
same,binding signal,GST-Co-NF-kB,0.663 z-score
same,binding signal,GST-Dm-Relish,1.06 z-score
same,binding signal,GST-Aq-NF-kB,0.588 z-score
CCGATTAACATCAAGATTAGGGATGATGTTAATCGGGTCTTGATTCGCTTGACGCTGCTG,binding signal,[1],0.684 z-score
same,binding signal,GST-Co-NF-kB,0.326 z-score
same,binding signal,GST-Dm-Relish,-0.672 z-score
same,binding signal,GST-Aq-NF-kB,0.848 z-score
CCGATTAACATCAGGAAAAACCCTGATGTTAATCGGGTCTTGATTCGCTTGACGCTGCTG,binding signal,[1],5.86 z-score
same,binding signal,GST-Co-NF-kB,0.801 z-score
same,binding signal,GST-Dm-Relish,6.52 z-score
same,binding signal,GST-Aq-NF-kB,7.68 z-score
CCGATTAACATCACTTTTCCCCCTGATGTTAATCGGGTCTTGATTCGCTTGACGCTGCTG,binding signal,[1],7.4 z-score
same,binding signal,GST-Co-NF-kB,10.8 z-score
same,binding signal,GST-Dm-Relish,3.73 z-score
same,binding signal,GST-Aq-NF-kB,5.27 z-score
